Where two headings read alike, the source gives them in different places. At least one peptide structure holds a part that was inferred or is arguable (an end, a ring closure or a residue). Some compounds share one wording; it may come from a single statement. Where a SMILES comes first, the peptide text is derived from it. Bridges are numbered along the chain shown (N, C = ends).
Key:
[1] = molecular target: T1, NPR-B (Mus musculus, UniProt Q6VVW5); test: stimulation of cGMP production in NIH3T3 cells; type: cell-based, murine; parameters: Murine NIH3T3 cells express endogenously the CNP signaling receptor, NPR-B; endogenous in cells; host or cells: NIH3T3
T1 sequence (Q6VVW5 17-1047): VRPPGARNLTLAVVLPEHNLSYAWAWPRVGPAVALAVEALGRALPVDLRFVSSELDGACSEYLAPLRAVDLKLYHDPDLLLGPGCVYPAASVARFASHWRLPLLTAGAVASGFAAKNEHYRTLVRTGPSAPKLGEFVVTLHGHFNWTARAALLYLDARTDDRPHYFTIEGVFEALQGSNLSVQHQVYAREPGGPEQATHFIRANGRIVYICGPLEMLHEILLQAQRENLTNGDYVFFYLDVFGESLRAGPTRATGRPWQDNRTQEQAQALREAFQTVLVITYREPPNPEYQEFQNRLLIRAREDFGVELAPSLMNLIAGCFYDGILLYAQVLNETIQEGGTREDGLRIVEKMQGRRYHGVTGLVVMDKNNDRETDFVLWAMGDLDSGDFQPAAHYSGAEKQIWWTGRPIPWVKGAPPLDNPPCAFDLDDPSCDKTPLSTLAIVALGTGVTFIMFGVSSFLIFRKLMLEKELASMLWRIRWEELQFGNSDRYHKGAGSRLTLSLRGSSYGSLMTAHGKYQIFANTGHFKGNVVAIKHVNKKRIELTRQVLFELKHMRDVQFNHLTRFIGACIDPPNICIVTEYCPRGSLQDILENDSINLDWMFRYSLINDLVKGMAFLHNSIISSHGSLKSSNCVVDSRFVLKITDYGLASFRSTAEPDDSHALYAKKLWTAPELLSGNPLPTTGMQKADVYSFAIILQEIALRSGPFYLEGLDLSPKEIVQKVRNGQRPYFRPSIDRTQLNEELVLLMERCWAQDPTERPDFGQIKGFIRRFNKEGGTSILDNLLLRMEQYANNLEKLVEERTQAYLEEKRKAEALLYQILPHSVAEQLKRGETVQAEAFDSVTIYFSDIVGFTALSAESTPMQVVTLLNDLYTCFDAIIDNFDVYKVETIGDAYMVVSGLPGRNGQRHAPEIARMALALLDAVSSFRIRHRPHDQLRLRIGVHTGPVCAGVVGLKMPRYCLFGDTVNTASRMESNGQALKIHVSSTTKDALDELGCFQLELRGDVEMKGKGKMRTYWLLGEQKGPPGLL
Procedure: To determine the functional activity of CNP variants, the production of cGMP was measured in NIH3T3 cells exposed to the CNP variants. Murine NIH3T3 cells express endogenously the CNP signaling receptor, NPR-B, which shares 98% protein sequence identity with human NPR-B. NIH3T3 cells were cultured in high glucose Dulbecco's Modified Eagle Medium supplemented with 10% fetal calf serum and antibiotics at 37° C. with 5% CO2). Twenty four to 48 hours prior to signaling, cells were passaged to 12-well plates with a density of 2-5×10^5 cells per well at the time of the assay. CNP variants were resuspended in 1 mM HCl to a stock concentration of 1 mg/mL (455 uM for wtCNP22) and subsequently diluted to a 30 uM working stock solution with phosphate-buffered saline (PBS). Ten-fold serial dilutions were prepared in phosphate-buffered saline. Culture medium was removed from the cells and replaced with 0.4 mL PBS/Dulbecco's modified Eagle medium (50/50, v/v) containing 0.75 mM isobutylmethylxanine. Plates were incubated at 37° C., 5% CO2 for 15 minutes before addition of 0.2 mL CNP variant in PBS and continued incubation at 37° C. for 15 minutes. Reactions were stopped by the addition of 0.2 mL lysis buffer supplied with the CatchPoint cGMP assay kit (Molecular Devices), and cGMP production was determined with the CatchPoint cGMP Assay (Molecular Devices). All stimulation experiments were performed in duplicate.
Tables 1-4 summarize the ability of CNP variants having backbone or side chain modifications, amino acid substitutions, N-terminal amino acid extensions, and/or N-terminal PEGylation, respectively, to stimulate cGMP production in NIH3T3 cells. In all four tables, the values for cGMP production in NIH3T3 cells exposed to 10 nM or 1 uM CNP variant are normalized to cell number and cGMP production in the presence of 1 uM wtCNP22.

[2] = tested on: wild type mice
[3] = 70 nmol/kg s.c. once daily for 36 days
[4] = 200 nmol/kg s.c. once daily for 36 days

Structure (SMILES): CC[C@H](C)[C@@H]1NC(=O)[C@H](CCCNC(=N)N)NC(=O)[C@H](CC(=O)O)NC(=O)[C@H](CC(C)C)NC(=O)[C@H](CCCCN)NC(=O)[C@H](CC(C)C)NC(=O)CNC(=O)[C@H](Cc2ccccc2)NC(=O)[C@@H](NC(=O)CNC(=O)[C@H](CCCNC(=N)N)NC(=O)[C@H](CO)NC(=O)[C@H](CC(C)C)NC(=O)CN)CSSC[C@@H](C(=O)O)NC(=O)CNC(=O)[C@H](CC(C)C)NC(=O)CNC(=O)[C@H](CO)NC(=O)[C@H](CCSC)NC(=O)[C@H](CO)NC(=O)CNC1=O [Analog AH, CNP22, K4R] (H-GLSRGCFGLKLDRIGSMSGLGC-OH; disulfide 6-22)
- NPR-B stimulation activity / cGMP production compared with wtCNP22 (in words) [1]: substantially similar NPR-B stimulation activity as wtCNP22

Structure (SMILES): CC[C@H](C)[C@@H]1NC(=O)[C@H](CCCNC(=N)N)NC(=O)[C@H](CC(=O)O)NC(=O)[C@H](CC(C)C)N(C)C(=O)[C@H](CCCCN)NC(=O)[C@H](CC(C)C)N(C)C(=O)CNC(=O)[C@H](Cc2ccccc2)NC(=O)[C@@H](NC(=O)CNC(=O)[C@H](CCCCN)NC(=O)[C@H](CO)NC(=O)[C@H](CC(C)C)NC(=O)CN)CSSC[C@@H](C(=O)O)NC(=O)CNC(=O)[C@H](CC(C)C)NC(=O)CNC(=O)[C@H](CO)NC(=O)[C@H](CCSC)NC(=O)[C@H](CO)NC(=O)CNC1=O [Analog M, CNP22, N-methyl-L9, N-methyl-L11]
- NPR-B stimulation activity / cGMP production compared with wtCNP22 (in words) [1]: failed to stimulate production of cGMP

Structure (SMILES): CC[C@H](C)[C@@H]1NC(=O)[C@H](CCCNC(=N)N)NC(=O)[C@H](CC(=O)O)NC(=O)[C@H](CC(C)C)NC(=O)[C@H](CCCCN)NC(=O)[C@H](CC(C)C)NC(=O)CNC(=O)[C@H](Cc2ccccc2)NC(=O)[C@@H](NC(=O)CNC(=O)[C@H](CCCNC(=N)N)NC(=O)[C@H](CO)NC(=O)[C@H](CC(C)C)NC(=O)CN)CSSC[C@@H](C(=O)O)NC(=O)CNC(=O)[C@H](CC(C)C)NC(=O)CNC(=O)[C@H](CO)NC(=O)[C@H](CCSC)NC(=O)[C@H](CCC(N)=O)NC(=O)CNC1=O [Analog BZ, CNP22, K4R, S16Q] (H-GLSRGCFGLKLDRIGQMSGLGC-OH; disulfide 6-22)
- NPR-B stimulation activity / cGMP production compared with wtCNP22 (in words) [1]: substantially similar NPR-B stimulation activity as wtCNP22

Structure (SMILES): CC[C@@H](C)[C@H]1NC(=O)[C@@H](CCCNC(=N)N)NC(=O)[C@@H](CC(=O)O)NC(=O)[C@@H](CC(C)C)NC(=O)[C@@H](CCCCN)NC(=O)[C@@H](CC(C)C)NC(=O)CNC(=O)[C@@H](Cc2ccccc2)NC(=O)[C@H](NC(=O)CNC(=O)[C@@H](CCCCN)NC(=O)[C@@H](CO)NC(=O)[C@@H](CC(C)C)NC(=O)CN)CSSC[C@H](C(=O)O)NC(=O)CNC(=O)[C@@H](CC(C)C)NC(=O)CNC(=O)[C@@H](CO)NC(=O)[C@@H](CCSC)NC(=O)[C@@H](CO)NC(=O)CNC1=O [Analog N, D-CNP22 (all D-amino acids)]
- NPR-B stimulation activity / cGMP production compared with wtCNP22 (in words) [1]: failed to stimulate production of cGMP

Structure (SMILES): CC[C@H](C)[C@@H]1NC(=O)[C@H](CCCNC(=N)N)NC(=O)[C@H](CC(=O)O)NC(=O)[C@H](CC(C)C)NC(=O)[C@H](CCCCN)NC(=O)[C@H](CC(C)C)NC(=O)CNC(=O)[C@H](Cc2ccccc2)NC(=O)[C@@H](NC(=O)CNC(=O)[C@H](CCCNC(=N)N)NC(=O)[C@H](CO)NC(=O)[C@H](CC(C)C)NC(=O)CN)CSSC[C@@H](C(=O)O)NC(=O)CNC(=O)[C@H](CC(C)C)NC(=O)CNC(=O)[C@H](CO)NC(=O)[C@H](CC(N)=O)NC(=O)[C@H](CO)NC(=O)CNC1=O [Analog BX, CNP22, K4R, M17N] (H-GLSRGCFGLKLDRIGSNSGLGC-OH; disulfide 6-22)
- NPR-B stimulation activity / cGMP production compared with wtCNP22 (in words) [1]: substantially similar NPR-B stimulation activity as wtCNP22

Structure (SMILES): CC[C@H](C)[C@@H]1NC(=O)[C@H](CCCNC(=N)N)NC(=O)[C@H](CC(=O)O)NC(=O)[C@H](CC(C)C)NC(=O)[C@H](CCCCN)NC(=O)[C@H](CC(C)C)NC(=O)CNC(=O)[C@H](Cc2ccccc2)NC(=O)[C@@H](NC(=O)CNC(=O)[C@H](CCCCN)NC(=O)[C@H](CO)NC(=O)[C@H](CC(C)C)NC(=O)CNC(=O)[C@H](CCCCN)NC(=O)[C@H](CCCCN)NC(=O)[C@H](CC(N)=O)NC(=O)[C@H](C)NC(=O)CNC(=O)[C@H](CCCCN)NC(=O)[C@H](Cc2ccccc2)NC(=O)[C@H](CCCNC(=N)N)NC(=O)[C@H](Cc2c[nH]cn2)NC(=O)[C@H](C)NC(=O)[C@@H](NC(=O)[C@H](CCC(=O)O)NC(=O)[C@H](CO)NC(=O)[C@H](CCCCN)NC(=O)[C@H](Cc2c[nH]cn2)NC(=O)CN)C(C)C)CSSC[C@@H](C(=O)O)NC(=O)CNC(=O)[C@H](CC(C)C)NC(=O)CNC(=O)[C@H](CO)NC(=O)[C@H](CCSC)NC(=O)[C@H](CO)NC(=O)CNC1=O [HSA-CNP27]
- % of Total Alk Phos (bone specific) ([2]; 20 nmol/kg): 42.6%
- Bone-specific AP IU/L ([2]; 20 nmol/kg): 51.7 IU/L
- Total AP IU/L ([2]; 20 nmol/kg): 121.4 IU/L
- % of Total Alk Phos (bone specific) ([2]; 70 nmol/kg): 56.2%
- Bone-specific AP IU/L ([2]; 70 nmol/kg): 76.5 IU/L
- Total AP IU/L ([2]; 70 nmol/kg): 136.1 IU/L
- plasma cGMP levels 15 minutes after the last injection, day 36 [2, 3]: ~400 pmol
- serum alkaline phosphatase (AP) levels [2, 3]: approximately 120 IU/L
- serum levels of cleaved collagen type II [2, 3]: approximately 10 pg/ml
- plasma cGMP levels 15 minutes after the last injection, day 36 [2, 4]: approximately 675 pmol
- serum alkaline phosphatase (AP) levels [2, 4]: approximately 140 IU/L
- serum levels of cleaved collagen type II [2, 4]: approximately 10 pg/ml

Structure (SMILES): CC[C@H](C)[C@@H]1NC(=O)[C@H](CCCNC(=N)N)NC(=O)[C@H](CC(=O)O)NC(=O)[C@H](CC(C)C)NC(=O)[C@H](CCCCN)NC(=O)[C@H](CC(C)C)NC(=O)CNC(=O)[C@H](Cc2cccc(Cl)c2)NC(=O)[C@@H](NC(=O)CNC(=O)[C@H](CCCCN)NC(=O)[C@H](CO)NC(=O)[C@H](CC(C)C)NC(=O)CN)CSSC[C@@H](C(=O)O)NC(=O)CNC(=O)[C@H](CC(C)C)NC(=O)CNC(=O)[C@H](CO)NC(=O)[C@H](CCSC)NC(=O)[C@H](CO)NC(=O)CNC1=O [Analog G]
- NPR-B stimulation activity / cGMP production compared with wtCNP22 (in words) [1]: substantially the same NPR-B stimulation activity at 1 uM as wtCNP22

Structure (SMILES): CC[C@H](C)[C@@H]1NC(=O)[C@H](CCCNC(=N)N)NC(=O)[C@H](CC(=O)O)NC(=O)[C@H](CC(C)C)NC(=O)[C@H](CCCCN)NC(=O)[C@H](CC(C)C)NC(=O)[C@H](CO)NC(=O)[C@H](Cc2ccccc2)NC(=O)[C@@H](NC(=O)CNC(=O)[C@H](CCCNC(=N)N)NC(=O)[C@H](CO)NC(=O)[C@H](CC(C)C)NC(=O)CN)CSSC[C@@H](C(=O)O)NC(=O)CNC(=O)[C@H](CC(C)C)NC(=O)CNC(=O)[C@H](CO)NC(=O)[C@H](CCSC)NC(=O)[C@H](CO)NC(=O)CNC1=O [Analog AB, CNP22, K4R, G8S] (H-GLSRGCFSLKLDRIGSMSGLGC-OH; disulfide 6-22)
- NPR-B stimulation activity / cGMP production compared with wtCNP22 (in words) [1]: substantially similar NPR-B stimulation activity as wtCNP22

Structure (SMILES): CC[C@H](C)[C@@H]1NC(=O)[C@H](CCCNC(=N)N)NC(=O)[C@H](CC(=O)O)NC(=O)[C@H](CC(C)C)NC(=O)[C@H](CCCNC(=N)N)NC(=O)[C@H](CC(C)C)NC(=O)CNC(=O)[C@H](Cc2ccccc2)NC(=O)[C@@H](NC(=O)CNC(=O)[C@H](CCCNC(=N)N)NC(=O)[C@H](CO)NC(=O)[C@H](CC(C)C)NC(=O)CN)CSSC[C@@H](C(=O)O)NC(=O)CNC(=O)[C@H](CC(C)C)NC(=O)CNC(=O)[C@H](CO)NC(=O)[C@H](CCSC)NC(=O)[C@H](CO)NC(=O)CNC1=O [Analog BH, CNP22, K4R, K10R] (H-GLSRGCFGLRLDRIGSMSGLGC-OH; disulfide 6-22)
- NPR-B stimulation activity / cGMP production compared with wtCNP22 (in words) [1]: substantially similar NPR-B stimulation activity as wtCNP22
